This is an account of results in paper PMC10866072, “Design, synthesis, molecular modelling and biological evaluation of novel 6-amino-5-cyano-2-thiopyrimidine derivatives as potent anticancer agents against leukemia and apoptotic inducers” (Journal of Enzyme Inhibition and Medicinal Chemistry, 2024).

One test has as its system NCI-H322M. Format: cell-based. The following applies: Homo sapiens, five-dose.
As to `N#Cc1c(N)nc(S)nc1-c1ccc(Cl)cc1Cl` [Compound 1c, 4-Amino-6–(2,4-dichlorophenyl)-2-mercaptopyrimidine-5-carbonitrile], the GI50 came out at 18.1 µM. This counts as double-digit micromolar.

The same test, now with this note: Homo sapiens, five-dose, read-out: LC50 (the source's name).
For the compound `N#Cc1c(N)nc(S)nc1-c1ccc(Cl)cc1Cl` [Compound 1c, 4-Amino-6–(2,4-dichlorophenyl)-2-mercaptopyrimidine-5-carbonitrile], the CC50 was determined as 81.3 µM.

The same test, now with this note: Homo sapiens, one dose 10^-5 M, 48 h, read-out: % growth.
Regarding `COc1ccc(C=NNC(=N)c2c(N)nc(S)nc2-c2ccc(Cl)cc2Cl)cc1` [Compound 4p, 4-amino-6–(2,4-dichlorophenyl)-2-mercapto-N'-[(4-methoxyphenyl)methylene] pyrimidine-5-carboximidohydrazide], the activity at 10 µM amounted to 104%.

As for `N=C(NN=Cc1ccc(Cl)cc1Cl)c1c(N)nc(S)nc1-c1ccc(Cl)cc1Cl` [Compound 4r, 4-amino-6–(2,4-dichlorophenyl)-N'-[(2,4-dichlorophenyl)methylene]-2-mercapto pyrimidine-5-carboximidohydrazide], the activity at 10 µM turned out to be 107%.

Regarding `CN(C)c1ccc(-c2nc(S)nc(N)c2-c2ncn[nH]2)cc1` [Compound 5a, 4-Aamino-6-[4-(dimethylamino)phenyl]-5-(1H-1,2,4-triazol-5-yl)pyrimidine-2-thiol], the activity at 10 µM was determined as 116%.

Consider `N=C(NN=Cc1ccc(Cl)cc1)c1c(N)nc(S)nc1-c1ccc(Cl)cc1Cl` [Compound 4n, 4-Amino-N'-[(4-chlorophenyl)methylene]-6–(2,4-dichlorophenyl)-2-mercapto pyrimidine-5-carboximidohydrazide], for which the activity at 10 µM turned out to be 102%.

Turning to `N=C(NN=Cc1ccccc1)c1c(N)nc(S)nc1-c1ccc(Cl)cc1` [Compound 4g, 4-amino-6–(4-chlorophenyl)-2-mercapto-N'-[phenylmethylene]pyrimidine-5-carboximido hydrazide], the activity at 10 µM worked out at 81.5%.

As for `N#Cc1c(N)nc(S)nc1-c1ccc(Cl)cc1` [Compound 1b], the activity at 10 µM is 76.1%.

Regarding `Nc1nc(S)nc(-c2ccc(Cl)cc2Cl)c1-c1ncn[nH]1` [Compound 5c, 4-Amino-6–(2,4-dichlorophenyl)-5-(1H-1,2,4-triazol-5-yl)pyrimidine-2-thiol], the activity at 10 µM worked out at 102%.

Regarding `CN(C)c1ccc(-c2nc(S)nc(N)c2C#N)cc1` [Compound 1a], the activity at 10 µM is 101%.

For `CN(C)c1ccc(-c2nc(S)nc(N)c2C(=N)NN=Cc2ccc(Br)cc2)cc1` [Compound 4e, 4-amino-N'-[(4-bromophenyl)methylene]-6-[4-(dimethylamino)phenyl]-2-mercapto pyrimidine-5-carboximidohydrazide], the activity at 10 µM worked out at 98.2%.

On to `N=C(NN=Cc1ccc([N+](=O)[O-])cc1)c1c(N)nc(S)nc1-c1ccc(Cl)cc1` [Compound 4i, 4-amino-6–(4-chlorophenyl)-2-mercapto-N'-[(4-nitrophenyl)methylene] pyrimidine-5-carboximidohydrazide], for which the activity at 10 µM is 88.9%.

`CN(C)c1ccc(-c2nc(S)nc(N)c2C(=N)NN=Cc2ccc(Cl)cc2)cc1` [Compound 4b, 4-amino-N'-[(4-chlorophenyl)methylene]-6-[4-(dimethylamino)phenyl]-2-mercapto pyrimidine-5-carboximidohydrazide]: the activity at 10 µM came out at 98.5%.

For `N=C(NN=Cc1ccc(Br)cc1)c1c(N)nc(S)nc1-c1ccc(Cl)cc1` [Compound 4k, 4-amino-N'-[(4-bromophenyl)methylene]-6–(4-chlorophenyl)-2-mercapto pyrimidine-5-carboximidohydrazide], the activity at 10 µM worked out at 82.4%.

Regarding `CN(C)c1ccc(-c2nc(S)nc(N)c2C(=N)NN=Cc2ccc(Cl)cc2Cl)cc1` [Compound 4f, 4-amino-N'-[(2,4-dichlorophenyl)methylene]-6-[4-(dimethylamino)phenyl]-2-mercapto pyrimidine-5-carboximidohydrazide], the activity at 10 µM was 95.5%.

Take `N=C(NN=Cc1ccc([N+](=O)[O-])cc1)c1c(N)nc(S)nc1-c1ccc(Cl)cc1Cl` [Compound 4o, 4-amino-6–(2,4-dichlorophenyl)-2-mercapto-N'-[(4-nitrophenyl)methylene] pyrimidine-5-carboximidohydrazide]: the activity at 10 µM was 100%.

Regarding `N=C(NN=Cc1ccc(Cl)cc1Cl)c1c(N)nc(S)nc1-c1ccc(Cl)cc1` [Compound 4l, 4-amino-6–(4-chlorophenyl)-N'-[(2,4-dichlorophenyl)methylene]-2-mercapto pyrimidine-5-carboximidohydrazide], the activity at 10 µM is 77.3%.

Take `N=C(NN=Cc1ccccc1)c1c(N)nc(S)nc1-c1ccc(Cl)cc1Cl` [Compound 4m, 4-Amino-6–(2,4-dichlorophenyl)-2-mercapto-N'-[phenylmethylene]pyrimidine-5-carboximidohydrazide]: the activity at 10 µM was 99.1%.

Take `CN(C)c1ccc(-c2nc(S)nc(N)c2C(=N)NN=Cc2ccccc2)cc1` [Compound 4a, 4-Amino-6-[4-(dimethylamino)phenyl]-2-mercapto-N'-[phenylmethylene] pyrimidine-5-carboximidohydrazide]: the activity at 10 µM was 99.2%.

`N=C(NN=Cc1ccc(Br)cc1)c1c(N)nc(S)nc1-c1ccc(Cl)cc1Cl` [Compound 4q, 4-amino-N'-[(4-bromophenyl)methylene]-6–(2,4-dichlorophenyl)-2-mercapto pyrimidine-5-carboximidohydrazide]: the activity at 10 µM was found to be 104%.

For the compound `Nc1nc(S)nc(-c2ccc(Cl)cc2)c1-c1ncn[nH]1` [Compound 5b, 4-Amino-6–(4-chlorophenyl)-5-(1H-1,2,4-triazol-5-yl)pyrimidine-2-thiol], the activity at 10 µM is 98.2%.

For `COc1ccc(/C=N\NC(=N)c2c(N)nc(S)nc2-c2ccc(N(C)C)cc2)cc1` [Compound 4d, 4-amino-N'-[(1Z)-(4-methoxyphenyl)methylene]-6-[4-(dimethylamino)phenyl]-2-mercapto pyrimidine-5-carboximidohydrazide], the activity at 10 µM stood at 95.7%.

Turning to `COc1ccc(C=NNC(=N)c2c(N)nc(S)nc2-c2ccc(Cl)cc2)cc1` [Compound 4j, 4-amino-6–(4-chlorophenyl)-2-mercapto-N'-[(4-methoxyphenyl)methylene] pyrimidine-5-carboximidohydrazide], the activity at 10 µM is 96.8%.

Regarding `N=C(NN=Cc1ccc(Cl)cc1)c1c(N)nc(S)nc1-c1ccc(Cl)cc1` [Compound 4h, 4-amino-6–(4-chlorophenyl)-N'-[(4-chlorophenyl)methylene]-2-mercapto pyrimidine-5-carboximidohydrazide], the activity at 10 µM turned out to be 87.3%.

Turning to `N#Cc1c(N)nc(S)nc1-c1ccc(Cl)cc1Cl` [Compound 1c, 4-Amino-6–(2,4-dichlorophenyl)-2-mercaptopyrimidine-5-carbonitrile], the activity at 10 µM was 96.5%.

The test is the same for the next values; noted with them: five-dose.
With `N#Cc1c(N)nc(S)nc1-c1ccc(Cl)cc1Cl` [Compound 1c, 4-Amino-6–(2,4-dichlorophenyl)-2-mercaptopyrimidine-5-carbonitrile], the TGI was found to be 38.40 µM.

The test is the same for the next values; noted with them: one dose 10^-5 M, 48 h.
“4-Amino-6–(2,4-dichlorophenyl)-2-mercaptopyrimidine-5-carboximidohydrazide [Compound 2c]”: the “% growth” value was 97.26%.

Take “3-Amino-4–(2,4-dichlorophenyl)-1H-pyrazolo[3,4-d] pyrimidine-6-thiol [Compound 3c]”: the “% growth” value turned out to be 106.23%.

As to “4-Amino-6–(4-chlorophenyl)-2-mercaptopyrimidine-5-carboximidohydrazide [Compound 2b]”, the “% growth” value is given as 104.22%.

Regarding “3-Amino-4-[4-(dimethylamino)phenyl]-1H-pyrazolo[3,4-d]pyrimidine-6-thiol [Compound 3a]”, the “% growth” value came to 101.18%.

Consider “3-Amino-4–(4-chlorophenyl)-1H-pyrazolo[3,4-d] pyrimidine-6-thiol [Compound 3b]”, for which the “% growth” value is 106.41%.

As for “4-Amino-6-[4-(dimethylamino)phenyl]-2-mercaptopyrimidine-5-carboximidohydrazide [Compound 2a]”, the “% growth” value was 101.58%.
